Source: the RNAGym collection of RNA variant scans (doi:10.7554/elife.90254)
Read counts are not given, so values of variants with three or more changes are uncertain.

B1: LINE1-full (parent)
chain: UACGUAGGUGGUUUUCCCCUGAUAGUGCUAAGGGGGCCUGGAAGUUUGGACUGGGCAGAGCUCAACACAGCGUGGCAAAGUGGCUGUGGCUAGACUGCCUCUCUGGAUUCCUCGUCACUCAGCAGGGCAUCUCUGAGAGAAAUGCC

Variants of: B1
Test: self-cleavage, relative activity (ratio to wild type); higher = more cleavage; in vitro, sequencing; the parent is a self-cleaving ribozyme

For UACGUAGGUGGUUUUCUCCUGAUGGUGCUAAGGGGGCCCGGAAGUUUGGACUGGGCAGAGCUCAACACAGCGUGGCAAGGUGGCUGUGGCUAGACUGCCUCUCUGGAUUCCUCGUCACUCAGCAGGGCAUCUCUGAGGGAAAUGCC [C17U A24G U39C A79G A138G], which self-cleavage is on record?
The self-cleavage was 0.

Which self-cleavage does the source give for UACGUAGGCGGUUUUCCCCUGAUAGUGCUAAGGGGGCCUGGAAGUUUGGACUGGGCAGAGCUCGACACAGCGUGGCAAAGUGGCUGUGGCUAGACUGCCUCCCUGGAUUCCUCGUCACUCAGCAGGGCAUCUCUGAGAGGAAUGCC [U9C A64G U102C A140G] here?
The self-cleavage was 1.06.

Which self-cleavage does the source give for UACGUAGGUGGUAUUCCCCUGAUAGUGCUAAGGGGGCCUGGAAGUUUGGACUGGGCAGAGCUCAACUCAGCGUGGCAAAGUGGCUGUGGCUAGACUGCCUCUCUGGAUUCCUCGUCACUCAGCAGGGCAUCUCUGAGAGAAACGCC [U13A A67U U143C] here?
Its self-cleavage is 0.25.

For UACGUAGGUGGUUUUCCCCUGAUAGUGCUAAGGGGGCCUGGAAGUUUGGACUGGGCAGAGCUCAACACAACGUGGCCAAGUGGCUGUGGCUAGACUGCCUCUCUGGAUUCCCCGUCACUCAGCAGGGCAUCUCUGAGAGAGAUGCC [G70A A77C U112C A141G], which self-cleavage is on record?
The self-cleavage was 0.12.

For UACGUAGGUGGUUUUCCCAUGAUAGUGCUAAGGGGGCCUGGAAGUUUGGACUGGGCAGAGCUCCACACAGCGUGGCAAAGUGGCUGUGGCUAGACUGCCUCUCAGGAUUCCUCGUCACUCAGCAGGGCAUCUCUGAGAGAAACGCC [C19A A64C U104A U143C], which self-cleavage is on record?
The self-cleavage was 0.15.

For UACGUAGGUGGUUUUCCCCUGAUAGUGCUAAGGGGGCCUGGAAGUUUGGUCAGGGCAGAGCUCAACACAGCGUGGCAAAGUGGCUGUGGCUAGACUGCCUCUCUGGAUUCCUCGUCACUCAGCAGCGCAUCUCUGAGAGAAAUGCC [A50U U52A G126C], which self-cleavage is on record?
The self-cleavage was 1.37.

With UUCGUAGGUGGUUUUCCCCCGAUAGUGCUAAGGGGGCCUGGAAGUUUGGACUGGGCAGAGCUCGACACAGCGUGGCAAAGUGGCUGUGGCAAGACUGCCUCUCUGGAUUCCUCGUCACUCAGCAGGGCAUCUCUGAGAGAAAUGCC [A2U U20C A64G U91A] as the variant, how does the self-cleavage read?
Its self-cleavage is 0.57.

Which self-cleavage does the source give for UACGUAGGUGGUUUUCCCCUGAUAGUGCUAAGGGGGCCUGGGGGUUUGGACUGGGCAGAGCUCAACACAGCGUGGCAAAGUGGCUGUGGCUUGACUGCCUCUCUGGAUUCCUCGUCACUCAGCAGGGCAUCUCUGAGAGAAAUGCC [A42G A43G A92U] here?
The self-cleavage was 0.5.

For UACGUAGGUGGUUUUCCCCUGAUAGUGCUAAGGGGGCCUGGAAGUUUGGACUGGGCAGAGCUCAACACAGCGCGGCAAAGUGGCGGUGGCUAGACUGCCUCUCUGGAUUCCUCGUCACUCAGCAGGGCCUCUCAGAGAGAAAUGCC [U73C U85G A129C U134A], which self-cleavage is on record?
Its self-cleavage is 0.68.

Which self-cleavage does the source give for UACGUAGGUGGUUUUCCCCUGAUAGUGCUAAGGCGGCCUGGAAGUUCGGACUGGGCAGAGCUCAACACAGCGUGGUAAAGUGGCUGUGGCUAGACUGCCUCUCUGGAUUCCUCGUCACUCAGCAGGGCAUCUCUGAGAGAAAUGCC [G34C U47C C76U] here?
Its self-cleavage is 2.18.

With UACGUAGGUGGUUUUCCCCUGAUAGUGCUAAGGGGGCCUGGAAGUCUGGACUGGGCAGAGCCCAACACAGCGUGGUAAAGUGGCUGUGGCUAGACUGCCUCUCUGGAUUCCUCGUCACUCAGCAGGGCAUCUCUGAGGGAAAUGCC [U46C U62C C76U A138G] as the variant, how does the self-cleavage read?
Its self-cleavage is 0.04.

With UACGUAGGUGGUUUUCCCCCGAUAGUGCUAAGGGGGCCUGGAAGUUUGGACUGGGCAGAGCUCAACACAGCGUGGCAAAGUGGCUGUGGCUAGACUGCCUCUAUGGAUUCCCCGUCACUCAGCAGGGCAUCUCUGAGAGAAAUGCC [U20C C103A U112C] as the variant, how does the self-cleavage read?
The self-cleavage was 1.3.

With UACGUAGGUAGUUUUCCCCUGAUAGUGCUAAGGGGGCCUGGAAGUUUGGACUGGGCAGAGCUCAGCACAGCGUGGCAAAGUGGCUGUGGCUAGGCUGCCUCUCUGGAUUCCUCGUCACUCAGCAGGGCAUCUCUGAGAGAAAUGCC [G10A A65G A94G] as the variant, how does the self-cleavage read?
Its self-cleavage is 0.51.

With UACGUAGGUGGUUUUCCCUUGAUAGUGCUAGGGGGGCCUGGAAGUUUGGACUGGGCAGAGCUCAACACAGCGUGGCAAAGUGGCUGUGGCUAGACUGCCCCUCUGGAUUCCUCGUCACUCAGCAGGGCAUCUCUGAGAGAAAUGCC [C19U A31G U100C] as the variant, how does the self-cleavage read?
The self-cleavage was 1.41.

Which self-cleavage does the source give for UACGUAGGUGGUUUCCCCUUGAUAGUGCUAAGGGGGCCUGGAAGUUUGGACUGGGCAGAGCUCAACACAGCGUGGCAAAGUGGCUGUGGCUAGACUGCCUCUCUGGAUUCCUCGUCACACAGCAGGGCAUCUCUGAGAGAAAUGCC [U15C C19U U119A] here?
Its self-cleavage is 0.82.

Which self-cleavage does the source give for UACGUAGGUGGUUCUCCCCUGAUAGUGCUAAGGGGGCCUGGAAGCUUGGACAGGGCAGAGCUCAACACAGCGUGGCAAAGUGGCUGUGGCUAGACUGCCUCUCUGGAUUCCUCGUCGCUCAGCAGGGCGUCUCUGAGAGAAAUGCC [U14C U45C U52A A117G A129G] here?
Its self-cleavage is 0.92.

For UAUGUAGGUGGUUUUCCUCUGAUAGUGCUAAGGGGGCCUGGAAGUUUGGACUGGGCAGAGCUCAACACAGCGUGGCGAAGUGGCUGUGGCUAGACUGCCUCUCUGGAUUCCUCGUCACCCAGCAGGGCAUCUCUGAGAGAAAUGCC [C3U C18U A77G U119C], which self-cleavage is on record?
The self-cleavage was 1.62.

Which self-cleavage does the source give for UACGUAGGUGGUUUUCCCCUGAUAGUGCUAAGGGGGCCUGGAAGUUUGGACUGGGCAGAGCUCAACACAGCGUGGCGAAGUGGCUGUGGCUAGACUGCCUCUCGGGAUUCCUCGUCACUCAGCAGGGCACCUCUGAGAGAAAUGCC [A77G U104G U130C] here?
The self-cleavage was 1.72.

With UACGUAGGUGGUUUUCCCCUGAUAGUGCUAAGGGGGCCUGGAAGUUUGGACUGGGCUGAGCUCAACACAGCGUGGCAAAGUGGCUGAGGCUAGUCUGCCUCUCUGGAUUCCUCGUCACUCAGCAGGGCAUCUCUGAGAGAAAUGCC [A57U U87A A94U] as the variant, how does the self-cleavage read?
Its self-cleavage is 0.03.
